The whole screen tested about 310,000 compounds, of which about 14,000 (4.5%) showed an effect of 50% or more. Effects have a minus sign here. Some of the results follow.
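Further: peak tail current of the secondary pulse compared with the same well before compound.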

Sequence of human ether-à-go-go-related gene (hERG) potassium channel (Q12809 whole entry, looked up): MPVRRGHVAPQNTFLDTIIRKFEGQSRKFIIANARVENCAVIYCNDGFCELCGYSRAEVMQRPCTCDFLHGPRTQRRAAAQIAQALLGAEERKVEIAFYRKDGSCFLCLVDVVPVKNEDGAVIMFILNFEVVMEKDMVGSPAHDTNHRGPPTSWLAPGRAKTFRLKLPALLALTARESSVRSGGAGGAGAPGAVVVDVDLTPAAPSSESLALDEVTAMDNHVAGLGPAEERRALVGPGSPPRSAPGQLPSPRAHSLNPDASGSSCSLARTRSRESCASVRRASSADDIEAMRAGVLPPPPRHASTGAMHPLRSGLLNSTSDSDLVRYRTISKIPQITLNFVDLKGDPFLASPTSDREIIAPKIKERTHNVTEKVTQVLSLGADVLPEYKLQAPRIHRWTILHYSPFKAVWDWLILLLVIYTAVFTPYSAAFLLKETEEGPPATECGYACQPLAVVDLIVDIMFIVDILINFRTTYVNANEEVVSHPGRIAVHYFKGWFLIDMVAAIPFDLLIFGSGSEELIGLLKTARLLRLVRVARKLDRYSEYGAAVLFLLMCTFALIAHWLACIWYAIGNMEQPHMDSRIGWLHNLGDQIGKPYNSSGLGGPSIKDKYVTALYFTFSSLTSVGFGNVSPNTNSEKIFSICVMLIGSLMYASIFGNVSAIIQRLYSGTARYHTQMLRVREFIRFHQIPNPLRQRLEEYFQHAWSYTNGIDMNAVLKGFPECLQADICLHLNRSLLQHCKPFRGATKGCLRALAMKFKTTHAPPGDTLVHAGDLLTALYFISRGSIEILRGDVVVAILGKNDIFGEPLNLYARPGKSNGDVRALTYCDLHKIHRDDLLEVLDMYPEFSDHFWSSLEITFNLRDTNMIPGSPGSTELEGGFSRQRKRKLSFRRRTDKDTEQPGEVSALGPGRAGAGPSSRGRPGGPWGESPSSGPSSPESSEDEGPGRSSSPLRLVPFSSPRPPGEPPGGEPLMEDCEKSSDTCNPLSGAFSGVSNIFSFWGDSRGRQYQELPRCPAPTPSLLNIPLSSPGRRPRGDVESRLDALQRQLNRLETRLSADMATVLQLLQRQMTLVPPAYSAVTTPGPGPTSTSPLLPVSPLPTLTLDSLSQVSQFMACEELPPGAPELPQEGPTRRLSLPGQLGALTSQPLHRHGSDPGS

This test has as its target human ether-à-go-go-related gene (hERG) potassium channel (human, UniProt Q12809). The experiment in a line: primary screen, population patch clamp on CHO cells stably expressing hERG.
As for `Cc1cc(/C=C2\SC(=O)N(C)C2=O)c(C)n1-c1cccc(C(=O)O)c1`, the “hERG current change (%, negative = inhibition) at 10uM” value amounted to 17.9%.

On to `CCOC(=O)c1sc(NC(=O)CCc2ccc(OC)cc2)nc1C`, for which the “hERG current change (%, negative = inhibition) at 10uM” value is given as 24.5%.

Take `CCC(C)NC(=O)/C=C/c1ccc(S(=O)(=O)NCc2ccco2)cc1` (stereo not drawn): the “hERG current change (%, negative = inhibition) at 10uM” value was -4.31%.

In the case of `CCOc1ccc(C(=O)CC(=O)C(=O)NCCc2ccc(OC)c(OC)c2)cc1`, the “hERG current change (%, negative = inhibition) at 10uM” value is recorded as -10%. Consider `Cc1ccc(N2C(=O)N(CC(=O)Nc3cccc(Cl)c3)C(=O)C2C)cc1` (stereo not drawn), for which the “hERG current change (%, negative = inhibition) at 10uM” value is listed as -14.9%. `CCOCCCNC(=O)C(c1ccc(Cl)cc1)N1CCN(C(=O)c2ccco2)CC1` (stereo not drawn): the “hERG current change (%, negative = inhibition) at 10uM” value was -0.366%. In the case of `CC(NC(=O)COc1ccc(/C=N/NC(=O)C(=O)Nc2ccccc2Br)cc1)c1ccccc1` (stereo not drawn), the “hERG current change (%, negative = inhibition) at 10uM” value was -9.07%. The figure for `Cc1cc(C)cc(NC(=S)NCc2cccs2)c1` is -10.7%. Regarding `O=S(=O)(Nc1n[nH]c(C(F)(F)F)n1)c1ccccc1`, the “hERG current change (%, negative = inhibition) at 10uM” value is recorded as -5.34%. For `CC12CCC(=O)N1C(C(=O)NNC(=O)c1cccc(Cl)c1)CS2` (stereo not drawn), the “hERG current change (%, negative = inhibition) at 10uM” value is on record as 14.8%. For the molecule `CCCCN(CC)CCCNC(=S)Nc1ccc2nc3n(c(=O)c2c1)CCCCC3`, the “hERG current change (%, negative = inhibition) at 10uM” value is reported as -11.9%. Take `CCCCCCSC1=C(C#N)C(c2ccc(C)o2)CC(=O)N1` (stereo not drawn): the “hERG current change (%, negative = inhibition) at 10uM” value is reported as -0.783%.

With `CC(C)=CC(=O)OCC(=O)Nc1ccc(SC(F)F)cc1`, the “hERG current change (%, negative = inhibition) at 10uM” value is recorded as -9.84%. On to `Cc1ccccc1OCC(=O)NCCC(=O)O`, for which the “hERG current change (%, negative = inhibition) at 10uM” value was 12.1%. On to `O=C1CC(=O)N(c2ccccc2F)C(=O)N1`, for which the “hERG current change (%, negative = inhibition) at 10uM” value is listed as 23.8%. Under `COc1cc(/C=C/C(=O)NCc2ccccn2)cc(OC)c1OC` stands 6.44%; under `Cc1ccc(/C=N/NC(=O)CSc2nc3ccccc3n2Cc2ccccc2)o1`, -33.9%; under `Clc1ccccc1-c1nnc(-c2ccc3c(c2)OCO3)o1`, 4.43%. Turning to `CC(C)Oc1ccc(NC(=O)C2CCCNC2=O)cc1` (stereo not drawn), the “hERG current change (%, negative = inhibition) at 10uM” value was 14.1%.

`CC(C)OCCCN1CN(S(=O)(=O)c2cccs2)c2nc3ccccc3nc21`: the “hERG current change (%, negative = inhibition) at 10uM” value is given as -12.1%. For the molecule `CC(Nn1cnnc1)c1cc(Cl)ccc1O` (stereo not drawn), the “hERG current change (%, negative = inhibition) at 10uM” value worked out at 17.2%. For `C=CCn1c(=O)c2ccccc2n2c(SCC(=O)NCCc3ccccc3)nnc12`, the “hERG current change (%, negative = inhibition) at 10uM” value is on record as -9.99%. Consider `C/C=C/C(=O)OCC(=O)Nc1c(Cl)cccc1Cl`, for which the “hERG current change (%, negative = inhibition) at 10uM” value was 4.91%. Under `Cc1nn(Cc2ccccc2)c(Cl)c1C(=O)OCC(=O)N1CCCC1` stands 8.91%; under `CC1(C(=O)NC2CCCC2)CCC(=O)N1Cc1ccc2c(c1)OCO2` (stereo not drawn), 2.64%. On to `O=C(Nc1ccc(C(=O)O)cc1)/C(=C\c1ccc2c(c1)OCO2)NC(=O)c1ccc(Br)cc1`, for which the “hERG current change (%, negative = inhibition) at 10uM” value stood at 5.36%. Under `C/C(CCc1ccc2c(c1)OCO2)=N\N=C(/N)SC1CC(=O)N(c2ccccc2F)C1=O` (stereo not drawn) stands -4.74%; under `CCN(CC)c1nc(Oc2ccc(C(=O)NN)cc2)nc(Oc2ccc(C(=O)NN)cc2)n1`, 9.31%. Turning to `CCN(CC)S(=O)(=O)c1cccc(NC2=NCC(C)S2)c1` (stereo not drawn), the “hERG current change (%, negative = inhibition) at 10uM” value is reported as -19.8%. `CCNc1nc(NCC)nc(-n2nc(C)cc2C)n1`: the “hERG current change (%, negative = inhibition) at 10uM” value came out at 3.29%.

As to `COc1ccc2[nH]c(=O)c(CN(C(C)=O)c3cccc(C)c3)cc2c1`, the “hERG current change (%, negative = inhibition) at 10uM” value is given as -8.64%. On to `Cc1ccc(S(=O)(=O)N2CCN(c3ncnc4c3cnn4-c3ccccc3)CC2)cc1`, for which the “hERG current change (%, negative = inhibition) at 10uM” value is 14.3%. In the case of `COc1ccc(CCNC2=C(Cl)C(=O)N(CCc3ccccc3)C2=O)cc1OC`, the “hERG current change (%, negative = inhibition) at 10uM” value is given as 1.61%. Regarding `O=C(c1ccccc1)c1cccn1CC(=O)N1CCc2ccccc2C1`, the “hERG current change (%, negative = inhibition) at 10uM” value is reported as -5.14%. The figure for `O=C1CC(CSc2ccc(Cl)cc2)=NN1` is 9.66%. `CCC(C)/C(C)=N/NC(=O)c1ccccc1OCCOc1ccccc1` (stereo not drawn): the “hERG current change (%, negative = inhibition) at 10uM” value was -30.3%. For the molecule `CCOc1ccc(S(=O)(=O)Nc2ccc(S(=O)(=O)N3CCCC3)cc2)cc1`, the “hERG current change (%, negative = inhibition) at 10uM” value is recorded as -3.38%. With `O=C(Cn1nnc(-c2ccc(S(=O)(=O)N3CCCC3)cc2)n1)Nc1ccccc1-n1cccc1`, the “hERG current change (%, negative = inhibition) at 10uM” value was 0.379%. As for `COc1ccc2[nH]c(C)c(C(=O)CN3CC(C)OC(C)C3)c2c1` (stereo not drawn), the “hERG current change (%, negative = inhibition) at 10uM” value is given as 3.52%. `CC(=O)Nc1nonc1-c1nc2ccccc2n1Cc1ccccc1`: the “hERG current change (%, negative = inhibition) at 10uM” value is listed as 13.2%. `O=C(CCCCCN1C(=O)c2ccccc2C1=O)NC1CCCC1`: the “hERG current change (%, negative = inhibition) at 10uM” value is 6.64%. For the molecule `CC(C)(CNc1ccc([N+](=O)[O-])cc1Cl)CNS(C)(=O)=O`, the “hERG current change (%, negative = inhibition) at 10uM” value is listed as -1.02%. `COc1ccc2c3c([nH]c2c1)[C@H]1C[C@H]2[C@H](C[C@@H](O)[C@H](OC)[C@H]2C(=O)O)CN1CC3.Cl`: the “hERG current change (%, negative = inhibition) at 10uM” value is -7.9%.

As to `Cc1cc(=O)[nH]c(SCC(=O)Nc2ccc(Br)cc2)c1C#N`, the “hERG current change (%, negative = inhibition) at 10uM” value is 8.39%.

Regarding `FC(F)(F)c1ccc(Oc2ccc3cc(Br)ccc3c2)nc1`, the “hERG current change (%, negative = inhibition) at 10uM” value turned out to be 10.1%. Take `Cc1cc(NC(=O)c2cccnc2)ccc1Br`: the “hERG current change (%, negative = inhibition) at 10uM” value worked out at 9.26%. Consider `CCO/C=C1\N=C(c2ccc(F)cc2)OC1=O`, for which the “hERG current change (%, negative = inhibition) at 10uM” value is 7.48%. Regarding `Cc1cccc(-n2c3nc(=O)[nH]c(=O)c-3cc3cc([N+](=O)[O-])ccc32)c1`, the “hERG current change (%, negative = inhibition) at 10uM” value is on record as -35.1%. On to `O=C(CSc1ccc2nnc(-c3cccnc3)n2n1)Nc1ccccc1C(F)(F)F`, for which the “hERG current change (%, negative = inhibition) at 10uM” value is given as -33.3%. For the molecule `Cc1ccc(C)c(NC(=O)COC(=O)Cc2ccsc2)c1`, the “hERG current change (%, negative = inhibition) at 10uM” value came to 33.1%. Consider `c1cncc(-c2nnc(-c3cccs3)o2)c1`, for which the “hERG current change (%, negative = inhibition) at 10uM” value is reported as 8.22%. Under `O=C(CSc1nncs1)N1CCN(S(=O)(=O)c2ccccc2)CC1` stands -4.25%. With `CC(C)(C)C(=O)COC(=O)C1=NN(c2ccccc2)C(=O)CC1`, the “hERG current change (%, negative = inhibition) at 10uM” value is 11.5%.

`N#CCCN(Cc1cccnc1)C(=O)Nc1cccc(Cl)c1`: the “hERG current change (%, negative = inhibition) at 10uM” value is -10.9%.

On to `O=C(Nc1ccccc1C(=O)N1CCCC1)c1ncoc1-c1cccc(Cl)c1`, for which the “hERG current change (%, negative = inhibition) at 10uM” value is on record as -26%. As for `Cc1ccc(C(C(=O)NCC2CCCO2)N(C(=O)c2snc(C(N)=O)c2N)c2ccc3c(c2)OCCO3)cc1` (stereo not drawn), the “hERG current change (%, negative = inhibition) at 10uM” value was -1.52%. For the molecule `CCOc1ccc(S(=O)(=O)N2CCN(c3ccc(OC)cc3)CC2)c2cccnc12`, the “hERG current change (%, negative = inhibition) at 10uM” value is -9.79%.

These data come from publication PMC4336329 (PLoS ONE, 2015).
